Reference: ChEMBL document CHEMBL1240533, “Selectivity and potency of cyclin-dependent kinase inhibitors” (AAPS J, 2006)

target: Cyclin-dependent kinase 1 (Homo sapiens, UniProt P06493)
Sequence (P06493 whole entry): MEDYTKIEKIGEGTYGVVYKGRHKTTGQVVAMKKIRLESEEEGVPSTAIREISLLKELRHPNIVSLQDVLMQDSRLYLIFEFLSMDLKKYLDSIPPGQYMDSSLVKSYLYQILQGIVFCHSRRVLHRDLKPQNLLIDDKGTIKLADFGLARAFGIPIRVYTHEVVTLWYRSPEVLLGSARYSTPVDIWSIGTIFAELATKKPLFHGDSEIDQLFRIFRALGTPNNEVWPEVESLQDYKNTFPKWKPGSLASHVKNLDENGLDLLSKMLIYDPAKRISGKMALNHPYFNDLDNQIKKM

Row | SMILES | IC50
1 | Cc1nc2ccccn2c1-c1ccnc(Nc2ccc(OCC(O)CN(C)C)cc2)n1 (stereo unspecified) | 5 nM
2 | NC(=O)c1ccc2c(c1)C(=NNc1ccc(S(=O)(=O)NCCOCCO)cc1)C(=O)N2 | 2800 nM
3 | O=C(Nc1cc(C2CCC2)c[nH]1)Nc1cccc2ccncc12 | 55 nM
4 | O=C1C(c2c(O)[nH]c3ccc(S(=O)(=O)O)cc23)=Nc2ccccc21 | 40 nM
5 | c1ccc2c(c1)Cc1c-2n[nH]c1-c1ccncc1 | 1600 nM
6 | CC1(C)CC2(C)Nc3cc(-c4ccc5c(c4)NC4(C)CC(C)(C)NC(=S)N54)ccc3N2C(=S)N1 (stereo unspecified) | 5000 nM
7 | Nc1nc2ccc(C(=O)c3c(F)cccc3Cl)cc2n1Cc1c(F)cccc1F | 104 nM
8 | CN(C)CCNS(=O)(=O)c1ccc(Nc2cccc(-c3cnc4ccccn34)c2)cc1 | 15 nM
9 | O=C(Cc1ccc2ccccc2c1)Nc1cc(C2CC2)n[nH]1 | 279 nM
10 | O=C(Nc1ccccn1)Nc1cccc2c1[C@H]1CCCN1C2=O | 1800 nM
11 | Nc1nc(N)c(N=O)c(=O)[nH]1 | 6 nM
